# Measured values reported in the supplement of paper PMC10338343.
# ± gives the standard deviation. Only a part is listed here, and it is no random draw.
# Tested on: MIWI (PIWIL1) piRISC loaded with L1MC piRNA (30 nt)
# Assay: pre-steady-state target cleavage rate (min^-1); MIWI and MILI are mouse PIWI proteins and EfPiwi is from a freshwater sponge; tags in brackets are library labels; higher = faster piRNA-guided slicing of the target
# Conditions: guide: L1MC piRNA 5'p-UAACUAAAUACUAUGCAAGCUGUAGGUCCU
# Outline: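 Sequencing of uncleaved targets, normalised to depth and to weakly complementary targets, was the readout of this Cleave-'n-Seq assay. A transcribed, DNA-blocked target RNA library (0.1 nM) was mixed with 1 nM active affinity-purified piRISC carrying one synthetic guide, with or without 500 nM GTSF1 partner protein, in HEPES–potassium acetate buffer at 33 °C for 0–8 or 0–960 min. Three trials were pooled, k3 was capped at 0.0001 min^-1, and a burst-and-steady-state fit gave the pre-steady-state cleavage rate.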
# [1] = auxiliary factor: 500 nM mouse GTSF1
# [2] = auxiliary factor: none (no GTSF1)
Sequence,pre-steady-state target cleavage rate [1],pre-steady-state target cleavage rate [2]
UGGACCUACAGCUUGCAUAGUAUUUAGCUA,0.0122 ± 0.0041,0.00548 ± 0.002
UCCUGGAAGUCCUUGCAUAGUAUUUAGUAA,0.0524 ± 0.01,0.00404 ± 0.0018
UGGACCUACACCUUGCAUAGUAUAUAGUUA,0.523 ± 0.041,0.0327 ± 0.007
UCCUGGUACAGCUUGGAUAGUAUUUAGUUA,0.485 ± 0.062,0.0337 ± 0.0046
UCCACGAACAGCUUGCAUAGUAUUUAGAAA,0.328 ± 0.039,0.00702 ± 0.0022
UCGACCAACAGCUUGCAUAGUUUUUAGUUA,0.452 ± 0.023,0.0425 ± 0.01
AGGACCUACAGCUUGCAUAGUAUUUAAGUUA,0.832 ± 0.062,0.0696 ± 0.013
UCCUGGAUCAGCUUGCAUAGUAUUUACUUA,0.224 ± 0.015,0.0269 ± 0.0071
UCCACCUACUAGCUUGCAUAGUAUUUAGUUA,0.6 ± 0.026,0.0339 ± 0.0059
UCCUGGAUGAGCUUGCAUACUAAUUAGUUA,0.0176 ± 0.0046,0.00533 ± 0.0015
UGGACCUACAGCUUGCAUACAAUUUAGUUA,0.00897 ± 0.0029,0.0035 ± 0.0017
UGCAGCUACAGCUUGCAUAGUAUUUAGUUA,1.21 ± 0.081,0.0733 ± 0.013
UCCUCCUACACCUUGCAUAGUAUUUAGAAA,0.602 ± 0.095,0.00482 ± 0.0022
UCCUGGUACAGCUUGCAUACUAUUUACUUA,0.104 ± 0.022,0.0203 ± 0.0062
UCCACCUACACCUUGCAUAGUUUUUAGUUA,0.249 ± 0.032,0.0171 ± 0.0033
UCCACCUACAGCUUGCAUAGUAAAUAGUUA,0.426 ± 0.039,0.00722 ± 0.0018
UCCUGGAUCAGCUUGCAUUGUAUUUUGUUA,0.285 ± 0.025,0.0141 ± 0.006
UCCUGGAUCAGCAUGCUUAGUAUUUAGUUA,0.234 ± 0.02,0.00661 ± 0.0025
UCCUCCUACACCUUGGAUAGUAUUUAGUUA,0.502 ± 0.071,0.0248 ± 0.004
UCCACCUAGAGCUUGCAUAGUAUUAAGUUA,1 ± 0.12,0.0172 ± 0.0031

Sequence,pre-steady-state target cleavage rate [1],pre-steady-state target cleavage rate [2]
UCCUGGAUGUGCUUGCAUAGUGUUUAGUUA,0.245 ± 0.019,0.0403 ± 0.01
UGGACGUACAGCUUGCAUAGUAUAUAGUUA,0.673 ± 0.049,0.0417 ± 0.0081
AGCACCUACAGCUUGCAUAGUAUUUAGUUA,1.19 ± 0.16,0.246 ± 0.073
UCCUGCUACUGCUUGCAUAGUAUUUUGUUA,0.558 ± 0.034,0.0284 ± 0.0045
UCCUGGAACAGCAUUGCAUAGUAUUUAGUUA,0.854 ± 0.05,0.0321 ± 0.0066
UCCUGGAUGUGCUUGGAUAGUAUUUUGUUA,0.274 ± 0.047,0.0168 ± 0.0048
UCCUGGUACAGCAUGCUUAGUAUUUAGUUA,0.609 ± 0.047,0.0178 ± 0.0046
UGGACCUACAGCUAGCAUAGUAUUUAGUAA,1.08 ± 0.065,0.016 ± 0.0033
UCCUGGAACAGCUUGCUUAGUAUUUAGUUA,1.14 ± 0.053,0.0404 ± 0.0098
UCCACCUACAGCUUGCAUAGUAUUUAGAAA,0.451 ± 0.066,0.00492 ± 0.0031
UCCUGCUACAGCUUGCAUAGUAAUUAGUUA,0.64 ± 0.038,0.0216 ± 0.0052
UCCUCCUACAGCUUGCAUAGCAUUUAGUUA,0.393 ± 0.026,0.0272 ± 0.005
UCCUGGAUGAGCUUGCAAAGUAUUUACUUA,0.194 ± 0.031,0.0187 ± 0.0048
UCCUGGUACAGCUUGCAUAGUUUUAAGUUA,0.117 ± 0.032,0.012 ± 0.0045
UCCUCCUACACGCUUGCAUAGUAUUUAGUUA,0.934 ± 0.037,0.0382 ± 0.0074
UGGUCCUACAGCUUGCAUAGUAUUUAGAUA,0.414 ± 0.033,0.0331 ± 0.0058
AAGGACCUACAGCUUGCAUAGUAUUUAGUUA,1.29 ± 0.071,0.0755 ± 0.014
AGGACCUACAGCUUACAUAGUAUUUAGUUA,1.28 ± 0.064,0.0655 ± 0.011
UCCUGGUACAGCUUGCAUUGUAUUUAGUAA,0.118 ± 0.023,0.00535 ± 0.0031
AGGACCUACAGCUUGCAAAGUAAUUAGUUA,0.681 ± 0.049,0.0124 ± 0.0036

Sequence,pre-steady-state target cleavage rate [1],pre-steady-state target cleavage rate [2]
UCCUGGAUGAGCUUGCAUAGUAUGUAGUUA,0.358 ± 0.046,0.0221 ± 0.005
UCCACCUACAGCUUGCAUAGUCUUUAGUUA,0.341 ± 0.035,0.0227 ± 0.0043
AGGACCUACAGCUAGCAUAGUAUUUAGAAA,0.571 ± 0.066,0.00411 ± 0.0025
AGGACCUACAGCUUGCAUAGUAUUUACGUUA,0.844 ± 0.063,0.083 ± 0.015
UCCUGCUACAGCUAGCAUAGUAUUUUGUUA,0.957 ± 0.081,0.0078 ± 0.0027
UCCUGGUACAGCUUGGAUACUAUUUAGUUA,0.282 ± 0.064,0.00733 ± 0.0031
UCCUGGAUCGAGCUUGCAUAGUAUUUAGUUA,0.817 ± 0.043,0.0319 ± 0.0068
UCGACCUACACCUUGCAUAGUAUUUAGAAA,0.68 ± 0.078,0.00902 ± 0.0024
UGCACCUACAGCUUGCAUACUAUUUAGUUA,0.355 ± 0.037,0.0214 ± 0.0031
UCCUGGAUCGCUUGCAUAGUAUUUAGUUA,0.968 ± 0.058,0.0131 ± 0.0045
UCCUGCUACAGCUUGCAUAGUAUCUUAGUUA,0.763 ± 0.061,0.0147 ± 0.003
UCCACCUACAGCUUGCAUAGUAUUUAGUUG [g2:g27:cont:t1G],0.399 ± 0.047,0.0371 ± 0.0065
UCCAGCUACAGCUUGCAAAGUAUUUAGUUA,0.493 ± 0.036,0.0247 ± 0.0041
UGGUCCUAGAGCUUGCAUAGUAUUUAGUUA,0.839 ± 0.086,0.0496 ± 0.0073
UGCACCUACAGCUUGCAUAGUAUUUAGUUA,1.22 ± 0.11,0.0865 ± 0.017
AGGACCUACAGCUUGGAUACUAUUUAGUUA,0.222 ± 0.018,0.0227 ± 0.0044
UCCUGGUACAGCUUGCUUAGUAAUUAGUUA,0.276 ± 0.05,0.0136 ± 0.004
UCCACCUACAGGUAGCAUAGUAUUUAGUUA,0.863 ± 0.053,0.00594 ± 0.0017
UGGACGUACAGCUUGCAUAGAAUUUAGUUA,0.341 ± 0.019,0.0267 ± 0.0072
UCCUGGAUGUGGUUGCAUAGUAUUUAGUAA,0.0114 ± 0.005,0.00475 ± 0.0025
